# Results reported in the supplement of paper PMC10126150.
# Sequences with one replicate were seen in a single cluster, so their values are uncertain.
# Test system: ATP
# Assay: switch fluorescence ratio, 500 uM ATP over buffer (Cy3 cluster intensity, sum of 5 cycles each) (fold (ratio)); higher = stronger signal-on switching upon ATP binding; sequences stand for … in TCGTCGGCAGCGTCAGATGTGTATAAGAGACAGTTTTTTTTTTTTTTTTTTTTTTTTT…TC
# Details: aptamer strand: ATP DNA aptamer (quencher-CACCTGGGGGAGTATTGCGGAGGAAGG + anchor), 100 nM annealed; ATP concentration: 500 uM; one replicate
# Outline: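 For every switch-domain sequence, the fluorescence ratio is the mean of per-cluster values, each being summed target-cycle Cy3 intensity over summed buffer-cycle Cy3 intensity. Clusters outside 100-1000 RFU were excluded. On a modified Illumina MiSeq flow-cell, the Cy3-labelled switching-strand clusters were annealed to 100 nM quencher-labelled ATP aptamer, imaged in selection buffer and then after 15 min with 500 uM ATP at 22 °C. Five such cycles were run, with NaOH stripping and re-annealing between them.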
# 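Note: ATP exposure 15 min at 22 °C before imaging.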
row,Sequence,switch fluorescence ratio
1,GGTCACGATC,0.946
2,GGTCACGTT,0.996
3,GGTCACTGGG,0.98
4,GGTCATAAGG,1.01
5,GGTCCAGCAG,1.02
6,GGTCCATATC,0.989
7,GGTCCATCTA,1
8,GGTCCCAGCC,1.03
9,GGTCCCCCAG,4.35
10,GGTCCCCCCT,1.05
11,GGTCCCGGCG,1
12,GGTCCGGACA,0.978
13,GGTCCTCAGC,1.36
14,GGTCCTTGTA,0.943
15,GGTCGACCAA,0.991
16,GGTCGAGAAT,0.982
17,GGTCGATGAA,0.977
18,GGTCGCGCCT,0.981
19,GGTCGCGTCG,0.98
20,GGTCGGAGGC,0.93
21,GGTCGGGCGC,1.02
22,GGTCGGTGGG,0.948
23,GGTCGTTAGT,1
24,GGTCGTTGAG,0.994
25,GGTCTAAGGT,0.978
26,GGTCTAGTTA,1.03

row,Sequence,switch fluorescence ratio
1,GGTCTCTGTG,0.96
2,GGTCTGACA,0.964
3,GGTCTTGGTT,1.02
4,GGTCTTTTC,0.936
5,GGTGAAGCGG,0.993
6,GGTGAAGTTC,1.04
7,GGTGACAGGG,0.993
8,GGTGACTGTG,0.892
9,GGTGAGACGG,1.01
10,GGTGAGGCCG,0.974
11,GGTGAGTTT,0.997
12,GGTGATGATG,0.945
13,GGTGATTCGA,0.97
14,GGTGATTTAC,0.972
15,GGTGCAACGA,1.05
16,GGTGCACGGA,1.01
17,GGTGCATCGG,1.04
18,GGTGCATCTC,1.04
19,GGTGCATGAG,1.01
20,GGTGCCATCC,2.05
21,GGTGCGCGCT,1.01
22,GGTGCGCGTT,1
23,GGTGCGGTA,0.989
24,GGTGCGTGCA,0.974
25,GGTGCGTGGT,1.05
26,GGTGCTACTT,0.993

row,Sequence,switch fluorescence ratio
1,GGTGCTTAAA,1.02
2,GGTGGAGATT,1.02
3,GGTGGATGTA,0.899
4,GGTGGATTCT,0.973
5,GGTGGCACGG,0.998
6,GGTGGCGAAA,1.02
7,GGTGGCGGGC,1
8,GGTGGCGGTA,0.999
9,GGTGGCGTGT,1.01
10,GGTGGCTTAC,1.12
11,GGTGGGGAC,0.992
12,GGTGGTAGAT,0.962
13,GGTGGTCCCG,0.965
14,GGTGGTTAGA,0.962
15,GGTGGTTAGG,0.988
16,GGTGTAGACA,0.995
17,GGTGTAGTT,0.974
18,GGTGTATCCC,0.968
19,GGTGTCAGCG,0.993
20,GGTGTCATAC,1.07
21,GGTGTGAATA,0.997
22,GGTGTGGAT,1.03
23,GGTGTGGGCT,1.07
24,GGTGTGGTAG,0.995
25,GGTGTGGTG,0.981
26,GGTGTGGTTC,0.97

row,Sequence,switch fluorescence ratio
1,GGTGTGTAAC,1.06
2,GGTGTTGATA,0.987
3,GGTGTTGCGA,0.978
4,GGTGTTTTAA,1.01
5,GGTTAAAGTG,0.995
6,GGTTAACGC,1.01
7,GGTTAAGG,0.998
8,GGTTAAGGC,0.975
9,GGTTAATGTG,1
10,GGTTAGCCTT,1.03
11,GGTTAGGCGA,1.01
12,GGTTAGGGCT,0.948
13,GGTTATATAT,1.07
14,GGTTATGTA,0.993
15,GGTTATGTCG,0.96
16,GGTTCAGGCG,0.969
17,GGTTCATGGA,1.02
18,GGTTCCAGTA,1.01
19,GGTTCCGGAA,1.03
20,GGTTCCGTTA,0.977
21,GGTTCGACCC,1.09
22,GGTTCGCTTA,1.06
23,GGTTCGGCA,0.977
24,GGTTCGGCCG,1.01
25,GGTTCGGT,1
26,GGTTCGTATC,0.977

row,Sequence,switch fluorescence ratio
1,GGTTCGTTCG,0.983
2,GGTTGACCAT,1.03
3,GGTTGCAGCG,0.987
4,GGTTGCATGG,1.01
5,GGTTGCCGCC,1.02
6,GGTTGCTGCT,0.962
7,GGTTGGGTTC,0.957
8,GGTTGTCAGA,1.01
9,GGTTGTCGGG,0.977
10,GGTTGTGTAC,1.14
11,GGTTGTGTGG,0.96
12,GGTTGTTGTC,1.03
13,GGTTTAGAAG,0.984
14,GGTTTGAGC,0.986
15,GGTTTGCCGG,1
16,GGTTTGGAAC,1.07
17,GGTTTGGAGG,1.01
18,GGTTTGTT,1.01
19,GGTTTTTCCC,1
20,GTAAACCGTT,1.05
21,GTAAAGTCCG,0.955
22,GTAAATCCTA,1.03
23,GTAAATTGAG,1.02
24,GTAACAATGA,1.02
25,GTAACAGTGC,1.06
26,GTAACCCGTG,0.992

row,Sequence,switch fluorescence ratio
1,GTAACGTTTC,1.06
2,GTAACTAGTG,0.976
3,GTAAGACAAA,1
4,GTAAGAGTAA,0.967
5,GTAAGATGGT,0.937
6,GTAAGCCCTA,0.965
7,GTAAGTATTG,1.02
8,GTAATAATGC,1.09
9,GTAATCACC,1.09
10,GTAATCGAAC,1.06
11,GTAATGTTGC,1.04
12,GTAATT,0.971
13,GTAATTCGGA,1.03
14,GTAATTGAC,1.04
15,GTAATTGGGG,0.949
16,GTAATTGGTT,0.987
17,GTACAAACGG,1.19
18,GTACAAACGT,1.12
19,GTACACCAGT,1.02
20,GTACCCTTTT,1
21,GTACCTGGAG,1.03
22,GTACGAAGGT,1.08
23,GTACGAGGAC,1.03
24,GTACGATGGA,1.01
25,GTACGCCAGT,0.991
26,GTACGCTTCC,2.26

row,Sequence,switch fluorescence ratio
1,GTACGTAAGT,1.09
2,GTACTAATAG,1.05
3,GTACTACAGC,1.05
4,GTACTATGCG,0.997
5,GTACTGATAT,1.02
6,GTACTTAGTA,0.996
7,GTACTTCAGG,1.02
8,GTACTTTGGG,1.04
9,GTAGAAGCCC,1.02
10,GTAGACCAGT,0.991
11,GTAGAGCAC,1.02
12,GTAGCAGATC,2.55
13,GTAGCATCAT,1.06
14,GTAGCATTGG,1.87
15,GTAGCGGGCG,0.963
16,GTAGCTGCTC,1.51
17,GTAGCTTGTA,1.05
18,GTAGGAACAG,0.968
19,GTAGGATTCA,0.943
20,GTAGGCACAA,0.934
21,GTAGGCAGCG,1.06
22,GTAGGCCGGC,1.11
23,GTAGGGAAGA,0.949
24,GTAGGTACCA,1.02
25,GTAGGTATAG,1
26,GTAGGTATCG,0.94

row,Sequence,switch fluorescence ratio
1,GTAGGTTGGC,0.991
2,GTAGTACCAC,1.02
3,GTAGTAGTAT,0.991
4,GTAGTATAAT,0.996
5,GTAGTATGTA,0.981
6,GTAGTCCGGT,0.996
7,GTAGTTTTT,0.985
8,GTATAAAAAT,0.957
9,GTATAACCGC,1.1
10,GTATAAGAGT,0.986
11,GTATACCTGG,0.98
12,GTATACCTGT,1.03
13,GTATACCTTT,1.01
14,GTATATGATG,1.03
15,GTATCATCA,1.04
16,GTATCCGCCT,0.937
17,GTATCTAGGA,0.996
18,GTATCTAT,1.02
19,GTATGAGCTA,1.06
